# Experimental data: the supplement of paper PMC8728848
# The list shows a part of the results.
# B1: Gal 7 (Homo sapiens) (protein)
# chain: MSNVPHKSSLPEGIRPGTVLRIRGLVPPNASRFHVNLLCGEEGGSDAALHFNPRLDTSEVVFNSKEGGSWGREESGPGVPFGRGQPFEVLIIASDDGFKAVVGDAQYHHFRHRLPLARVRLVEVGGDVQLDSVRIF
# Legend:
# Test in all cases: glycan array binding signal (z-score within array); higher = stronger binding
# Conditions in all cases: glycan notation: IUPAC condensed, linker removed; mutation: R74S
# [1] = biological target: Fuc(a1-2)Gal(b1-4)GlcNAc(b1-3)Gal(b1-4)GlcNAc(b1-2)Man(a1-3)[Fuc(a1-2)Gal(b1-4)GlcNAc(b1-3)Gal(b1-4)GlcNAc(b1-2)Man(a1-6)]Man(b1-4)GlcNAc(b1-4)GlcNAc
# Outline: (§1)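 Arrays were curated from the Consortium for Functional Glycomics database, 3228 in total, and kept only where the protein sequence was available. Binding is expressed as a within-array Z-score. This score was averaged across arrays of the same protein sequence at different concentrations or buffers and across linkers, and negative values can be read as non-binding.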
# [2] = biological target: Fuc(a1-2)Gal(b1-4)GlcNAc(b1-3)Gal(b1-4)GlcNAc(b1-3)Gal(b1-4)GlcNAc
# Outline: as §1
# [3] = biological target: Fuc(a1-2)Gal(b1-4)GlcNAc(b1-3)GalNAc
# Outline: as §1
# [4] = biological target: Fuc(a1-2)Gal(b1-4)GlcNAc(b1-3)[Fuc(a1-2)Gal(b1-4)GlcNAc(b1-6)]GalNAc
# Outline: as §1
# [5] = biological target: Fuc(a1-2)Gal(b1-4)GlcNAc(b1-3)[Fuc(a1-3)[Gal(b1-4)]GlcNAc(b1-6)]Gal(b1-4)Glc
# Outline: as §1
# [6] = biological target: Fuc(a1-2)Gal(b1-4)GlcNAc(b1-6)GalNAc
# Outline: as §1
# [7] = biological target: Fuc(a1-2)Gal(b1-4)GlcNAc6S
# Outline: as §1
# [8] = biological target: Fuc(a1-2)Gal(b1-4)[Fuc(a1-3)]GlcNAc
# Outline: as §1
# [9] = biological target: Fuc(a1-2)Gal(b1-4)[Fuc(a1-3)]GlcNAc(b1-2)Man(a1-3)[Fuc(a1-2)Gal(b1-4)[Fuc(a1-3)]GlcNAc(b1-2)Man(a1-6)]Man(b1-4)GlcNAc(b1-4)[Fuc(a1-6)]GlcNAc
# Outline: as §1
# [10] = biological target: Fuc(a1-2)Gal(b1-4)[Fuc(a1-3)]GlcNAc(b1-2)[Fuc(a1-2)Gal(b1-4)[Fuc(a1-3)]GlcNAc(b1-4)]Man(a1-3)[Fuc(a1-2)Gal(b1-4)[Fuc(a1-3)]GlcNAc(b1-2)Man(a1-6)]Man(b1-4)GlcNAc(b1-4)GlcNAc
# Outline: as §1
# [11] = biological target: Fuc(a1-2)Gal(b1-4)[Fuc(a1-3)]GlcNAc(b1-3)Gal(b1-4)[Fuc(a1-3)]GlcNAc
# Outline: as §1
# [12] = biological target: Fuc(a1-2)Gal(b1-4)[Fuc(a1-3)]GlcNAc(b1-3)Gal(b1-4)[Fuc(a1-3)]GlcNAc(b1-3)Gal(b1-4)[Fuc(a1-3)]GlcNAc
# Outline: as §1
# [13] = biological target: Fuc(a1-2)Gal(b1-4)[Fuc(a1-3)]GlcNAc(b1-3)GalNAc
# Outline: as §1
# [14] = biological target: Fuc(a1-2)Gal(b1-4)[Fuc(a1-3)]GlcNAc(b1-3)[Neu5Ac(a2-6)Gal(b1-4)GlcNAc(b1-6)]Gal(b1-4)Glc
# Outline: as §1
# [15] = biological target: Fuc(a1-2)Gal3S(b1-4)GlcNAc
# Outline: as §1
# [16] = biological target: Fuc(a1-2)Gal6S(b1-3)GlcNAc
# Outline: as §1
# [17] = biological target: Fuc(a1-2)Gal6S(b1-3)GlcNAc6S
# Outline: as §1
# Fuc(a1-2)Gal6S(b1-4)Glc = biological target: Fuc(a1-2)Gal6S(b1-4)Glc
# Outline: as §1
# [18] = biological target: Fuc(a1-2)Gal6S(b1-4)Glc6S
# Outline: as §1
# Fuc(a1-2)[Gal(a1-3)]Gal = biological target: Fuc(a1-2)[Gal(a1-3)]Gal
# Outline: as §1
# [19] = biological target: Fuc(a1-2)[Gal(a1-3)]Gal(b1-3)GalNAc
# Outline: as §1
# [20] = biological target: Fuc(a1-2)[Gal(a1-3)]Gal(b1-3)GalNAc(b1-3)Gal(a1-4)Gal(b1-4)Glc
# Outline: as §1
# [21] = biological target: Fuc(a1-2)[Gal(a1-3)]Gal(b1-3)GlcNAc
# Outline: as §1
# [22] = biological target: Fuc(a1-2)[Gal(a1-3)]Gal(b1-3)GlcNAc(b1-2)Man(a1-3)[Fuc(a1-2)[Gal(a1-3)]Gal(b1-3)GlcNAc(b1-2)Man(a1-6)]Man(b1-4)GlcNAc(b1-4)GlcNAc
# Outline: as §1
# [23] = biological target: Fuc(a1-2)[Gal(a1-3)]Gal(b1-3)GlcNAc(b1-2)Man(a1-3)[Fuc(a1-2)[Gal(a1-3)]Gal(b1-3)GlcNAc(b1-2)Man(a1-6)]Man(b1-4)GlcNAc(b1-4)[Fuc(a1-6)]GlcNAc
# Outline: as §1
# [24] = biological target: Fuc(a1-2)[Gal(a1-3)]Gal(b1-3)GlcNAc(b1-3)GalNAc
# Outline: as §1
# [25] = biological target: Fuc(a1-2)[Gal(a1-3)]Gal(b1-3)GlcNAc(b1-6)GalNAc
# Outline: as §1
# [26] = biological target: Fuc(a1-2)[Gal(a1-3)]Gal(b1-4)Glc
# Outline: as §1
# [27] = biological target: Fuc(a1-2)[Gal(a1-3)]Gal(b1-4)GlcNAc
# Outline: as §1
# [28] = biological target: Fuc(a1-2)[Gal(a1-3)]Gal(b1-4)GlcNAc(b1-2)Man
# Outline: as §1
binder,measurement,setting,value
B1,glycan array binding signal (z-score),[1],13.1
same,glycan array binding signal (z-score),[2],1.15
same,glycan array binding signal (z-score),[3],-0.19
same,glycan array binding signal (z-score),[4],-0.363
same,glycan array binding signal (z-score),[5],0.039
same,glycan array binding signal (z-score),[6],0.439
same,glycan array binding signal (z-score),[7],-0.321
same,glycan array binding signal (z-score),[8],0.289
same,glycan array binding signal (z-score),[9],1.75
same,glycan array binding signal (z-score),[10],1.12
same,glycan array binding signal (z-score),[11],-0.128
same,glycan array binding signal (z-score),[12],0.209
same,glycan array binding signal (z-score),[13],0.936
same,glycan array binding signal (z-score),[14],-0.354
same,glycan array binding signal (z-score),[15],-0.256
same,glycan array binding signal (z-score),[16],-0.216
same,glycan array binding signal (z-score),[17],0.048
same,glycan array binding signal (z-score),Fuc(a1-2)Gal6S(b1-4)Glc,-0.5
same,glycan array binding signal (z-score),[18],0.38
same,glycan array binding signal (z-score),Fuc(a1-2)[Gal(a1-3)]Gal,-0.22
same,glycan array binding signal (z-score),[19],-0.278
same,glycan array binding signal (z-score),[20],0.194
same,glycan array binding signal (z-score),[21],-0.215
same,glycan array binding signal (z-score),[22],0.275
same,glycan array binding signal (z-score),[23],-0.135
same,glycan array binding signal (z-score),[24],-0.42
same,glycan array binding signal (z-score),[25],-0.325
same,glycan array binding signal (z-score),[26],-0.191
same,glycan array binding signal (z-score),[27],-0.56
same,glycan array binding signal (z-score),[28],-0.414
